Source: publication PMC12136788
The list shows a part of the results.

T1: UNK ZnF1-6 (called full-length) (human, UniProt Q9C0B0 30-357)
T1 sequence: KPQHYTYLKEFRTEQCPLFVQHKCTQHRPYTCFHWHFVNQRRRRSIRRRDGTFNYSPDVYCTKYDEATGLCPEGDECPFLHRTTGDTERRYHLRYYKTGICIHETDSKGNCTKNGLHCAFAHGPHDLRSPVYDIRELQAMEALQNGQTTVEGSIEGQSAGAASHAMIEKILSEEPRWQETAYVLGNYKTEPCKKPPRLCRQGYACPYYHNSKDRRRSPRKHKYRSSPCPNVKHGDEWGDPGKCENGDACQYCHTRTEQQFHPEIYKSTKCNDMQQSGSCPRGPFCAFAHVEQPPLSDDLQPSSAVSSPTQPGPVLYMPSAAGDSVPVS

B1: ENSG00000106682:stop:overlap|stop_codon|ENSG00000106682|stop_codon|NA|stop_codon (ssRNA)
RNA: GGGAGUUCUACAGUCCGACGAUCCUUCCCCUGGAAGGUUCAGGAGAGUAUUUGUCGCCUGGUUGCUUUUACAUCAUGCUGAUUAGACCUGCACACCCGGGCAUGAAAUGAGUGUGAUUGCAUCAUUUUCAUAGAACCUAAUGGCAACAGAGGAUUGAGCAUCA
B2: chr15:58589816:58589917:-|3pUTR|ENSG00000137845|unk|FALSE|unique (ssRNA)
RNA: GGGAGUUCUACAGUCCGACGAUCAUUCAUUUGCUGAAGAGCUGGCUUGUACUUUGGCAGGUGUCAUACUUGGUUAUUCUCCUUAGGAUAUUGGCCCAACAAUCUGGGAGUUGUGAAAGGCGCUUCGCUUUUCAGACCUGGGCGCAACAGAGGAUUGAGCAUCA
B3: ENSG00000124766:be:win_1651|3pUTR|ENSG00000124766|bound_else_gene|NA|bound_elsewhere_windowed (ssRNA)
RNA: GGGAGUUCUACAGUCCGACGAUCUCUGCCCAGCCGGAGGGACGCGGAGGAGGAAGAGGGUAGACAGGGGCGACCUGUGAUUGUUGUUAUUGAUGUUGUUGUUGAUGGCAAAAAAAAAAAAGCGACUUCGAGUUUGCUCCCCUUCAACAGAGGAUUGAGCAUCA
B4: chr7:80742675:80742739:-|3pUTR|ENSG00000075223|msi1_unk|total|mutant (ssRNA)
RNA: GGGAGUUCUACAGUCCGACGAUCGCCGCUUGACAAUUCAGUGACUUAAUAUCUAUUCCAUUUGUAUUGUACAUAAAAUUUUCCCGAAAUACACUUUUUUCCAAAGUGUAAGUUUGUGAACCGAUUUCCGCAUGAUGAAACUGUCAACAGAGGAUUGAGCAUCA
B5: chr5:83943476:83943577:-|CDS|ENSG00000164176|msi1|total|mutant (ssRNA)
RNA: GGGAGUUCUACAGUCCGACGAUCAUAAAAAUAAUUUCAAAGAAAGAAGGCUGUGUGACUGACAUUUUUCUGCUCUUCUUUAUCCGGUUUUCCAGGGAAAUUUUGACAAUGACACUCACAGAAAAAAUGUCAUCGACCCUCCCACAACAGAGGAUUGAGCAUCA
B6: chr9:125236489:125236593:-|3pUTR|ENSG00000044574|msi1_unk|total|mutant (ssRNA)
RNA: GGGAGUUCUACAGUCCGACGAUCUGCCGACACUGAUCUGCCCGUGCUGUAAUAUUGUAAAUACUGGACUCAGGAACUUUUGUCCGGAAAAAAUUGAAAGAACUUAAGUCUCGAAUGUAAUUGGAAUCUUCACCUCAGAGUGGACAACAGAGGAUUGAGCAUCA

molecular target: T1, UNK ZnF1-6 (called full-length); experiment: nsRBNS (natural sequence RNA bind-n-seq); RBNS binding buffer (assumed for nsRBNS): 25 mM Tris pH 7.5, 150 mM KCl, 3 mM MgCl2, 0.01% Triton X-100, 500 ug/ml BSA, 20 U/ml SUPERase-In, 4 C; UNK is unkempt and MSI1 is Musashi-1; names of the RNAs are library labels; protein concentration not given here; high values mean tight binding

**Q.** For B1, which binding signal is on record?
**A.** 0.869 enrichment R

**Q.** For B2, which binding signal is on record?
**A.** 0.853 enrichment R

**Q.** B3 was tested. Which binding signal did it give?
**A.** 0.645 enrichment R

**Q.** How did the binding signal turn out when B4 was run?
**A.** 0.531 enrichment R

**Q.** How did the binding signal turn out when B5 was run?
**A.** 0.467 enrichment R

**Q.** How did the binding signal turn out when B6 was run?
**A.** 0.446 enrichment R
